Measured values published in the supplement of paper PMC3334620.
In all, about 33,000 sequences were measured (“E-score (-0.5 to 0.5)”: median about -0.016, highest 2% from about 0.32 on). The list shows a part of the results.

These sequences were tested against T1, Stp1 (UniProt B3LFK1) (assay: PBM E-score (8-mer binding enrichment) (E-score (-0.5 to 0.5)); higher = stronger / more preferred TF binding; most listed sequences are background and not binding sites). Conditions: protein concentration: 200 nM; construct: GST-full length.
T1 sequence: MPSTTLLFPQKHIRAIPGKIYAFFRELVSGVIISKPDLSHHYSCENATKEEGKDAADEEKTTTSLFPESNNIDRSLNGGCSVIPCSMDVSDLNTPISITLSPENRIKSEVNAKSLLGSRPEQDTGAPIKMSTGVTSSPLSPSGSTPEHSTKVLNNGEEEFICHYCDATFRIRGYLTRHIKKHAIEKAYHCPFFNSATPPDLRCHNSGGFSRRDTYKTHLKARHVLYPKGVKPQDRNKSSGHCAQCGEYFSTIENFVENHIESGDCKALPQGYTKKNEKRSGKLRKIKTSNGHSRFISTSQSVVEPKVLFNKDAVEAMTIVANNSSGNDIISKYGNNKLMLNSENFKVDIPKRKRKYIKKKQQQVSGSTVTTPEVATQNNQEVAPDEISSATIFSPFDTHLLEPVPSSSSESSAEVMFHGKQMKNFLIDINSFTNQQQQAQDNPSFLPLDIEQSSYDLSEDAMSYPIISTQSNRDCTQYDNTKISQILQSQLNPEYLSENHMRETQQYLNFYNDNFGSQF
Protocol: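 Universal 'all 10-mer' protein binding microarrays (Agilent AMADID 015681) probed with GST-tagged S. cerevisiae TFs (full-length or DBD) made by in vitro transcription/translation (PURExpress), about 100-200 nM. Bound TF was detected with fluorescent anti-GST. Each ungapped 8-mer (which stands for itself and its reverse complement) is scored by the PBM enrichment score (E-score), a modified Wilcoxon-Mann-Whitney statistic from -0.5 to +0.5, computed with the Universal PBM Analysis Suite. Scale: above 0.35 generally sequence-specific binding.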

Row | Sequence | PBM E-score
1 | GGGACCGA | -0.273
2 | GGTATTAC | -0.0377
3 | CGTACTGC | -0.0413
4 | AATTGCAC | 0.0342
5 | AGTTCCAA | -0.0924
6 | TATTTAAA | 0.234
7 | GTAAGACA | 0.0113
8 | AGTGTTGA | 0.16
9 | AAGTGATG | -0.0746
10 | AGGGGCAA | -0.0456
11 | AGTCTAGG | -0.261
12 | CAGGGTTC | -0.226
13 | CATTGGGG | -0.274
14 | AAAGCGAA | 0.128
15 | ATCCATTC | 0.0802
16 | CACTCAGC | -0.212
17 | CCATTTAA | 0.214
18 | ATCCTTGG | 0.0305
19 | AGAAAAAA | 0.117
20 | AATTCGAG | -0.0539
21 | GCACCGAA | 0.238
22 | ACGAAACC | 0.174
23 | CAGGTCGA | -0.112
24 | GGATTCGA | -0.244
25 | AAGTTGAG | 0.00627

Row | Sequence | PBM E-score
26 | AAGACTGT | -0.159
27 | ACTTCTCG | -0.00132
28 | AACTCGTC | -0.0438
29 | GTGTCAGA | -0.0659
30 | GTACTGCA | -0.213
31 | ACTGCTCT | -0.179
32 | GACCAATC | 0.016
33 | AGGGGGTC | -0.329
34 | ATGGCCTA | 0.0402
35 | ATTAACGG | 0.134
36 | GTTGAGAA | 0.0583
37 | GACGTGCC | 0.238
38 | TCCCTGCA | -0.188
39 | GGACGTCC | -0.145
40 | CCCCAACC | -0.208
41 | CTACATCC | -0.00074
42 | CATAAGTC | -0.0464
43 | CAGTACAC | -0.00593
44 | AATAGTGC | 0.182
45 | CCCGGGAG | -0.264
46 | GATTTCGA | 0.0525
47 | CAGAACAG | -0.0941
48 | AGAAAGAC | -0.179
49 | GAAATGCC | 0.358
50 | AGGCCGTA | 0.298

Row | Sequence | PBM E-score
51 | CGCATGCA | 0.253
52 | ACTAAGAG | -0.00691
53 | AGTAATAA | 0.194
54 | AGCGGTGA | -0.0251
55 | TCTAAACA | 0.0817
56 | GCGCACCA | 0.125
57 | CCTGCTAA | -0.238
58 | AGCCGTAA | 0.31
59 | GTATGTCA | 0.0265
60 | GAGCAGCC | 0.0376
61 | CAGCCCGA | -0.192
62 | ACGCAGCG | 0.0728
63 | AGGTAGTA | 0.0699
64 | GAGTAGAA | 0.1
65 | GAAGACCA | -0.028
66 | ATAAGAGC | 0.169
67 | ACGCGGCC | 0.326
68 | CGGAAGGC | 0.168
69 | AACACTGG | -0.0145
70 | CGATGGAA | 0.0937
71 | ACTCTTCC | -0.0344
72 | ACAGCCAG | -0.0916
73 | ATTCATCA | -0.0923
74 | TACTCGGA | -0.00331
75 | CACCTAGA | -0.0847

Row | Sequence | PBM E-score
76 | AACCTACA | -0.0226
77 | TACTGGCA | -0.0612
78 | GAGGGCAA | 0.0861
79 | CTTACGAA | 0.0608
80 | AGGAACAC | 0.063
81 | AGTCATTC | -0.246
82 | ATGCGACG | -0.131
83 | AAAATTGT | 0.076
84 | CTATGCAG | 0.0393
85 | ACAAGATC | -0.121
86 | AAGAGGAT | -0.292
87 | ACTGAGGC | 0.104
88 | AATCTATC | -0.0435
89 | AACTGGAT | 0.0626
90 | CGGTTATA | -0.08
91 | GAAGCGTA | -0.105
92 | GACCTTTA | -0.0597
93 | GCACGGGA | 0.128
94 | CTGCCCGC | -0.0008
95 | GGTCAGAC | -0.277
96 | ATCCATCA | 0.0768
97 | CCTTTCCA | -0.0138
98 | CGATAACC | -0.0772
99 | GCCTCTAA | 0.0553
100 | GAACTAAC | -0.027

Row | Sequence | PBM E-score
101 | CGTCGGGC | 0.00283
102 | CTTATCCC | -0.177
103 | AATACTCC | -0.256
104 | CAGTGCCC | 0.108
105 | GATCTGAA | -0.176
106 | ACGCTAAA | 0.127
107 | GGCCATCA | -0.0599
108 | ACCTTCAT | -0.0677
109 | AAGTTATT | 0.167
110 | CAGTCGAA | -0.148
111 | GGCGAGAC | -0.12
112 | ATTTTGTC | 0.0356
113 | CAATGTGG | 0.107
114 | ACTAGATA | 0.0525
115 | ATAGTTTC | 0.00045
116 | CTGACTCA | -0.1
117 | CAGTACGC | -0.111
118 | GATGTCTA | -0.015
119 | AATGGAAT | 0.136
120 | CCTTTACG | -0.0123
121 | CTGAAGCC | 0.0469
122 | ATAAAGTG | 0.0971
123 | CCTAGGAA | -0.0529
124 | CAACTCCA | -0.108
125 | AATTGGAT | 0.16

Row | Sequence | PBM E-score
126 | GCTTTGGA | 0.103
127 | AACATCGC | -0.0551
128 | GACGATCA | -0.211
129 | GTCATAAA | -0.0336
130 | ACGTCGCG | -0.00283
131 | AAACACGC | 0.131
132 | GACCTCTA | -0.165
133 | CAAGTAGG | -0.238
134 | AGAAATAT | 0.169
135 | CGGAGTAA | -0.061
136 | GACGTGGC | 0.0455
137 | AATAACTA | 0.192
138 | CGTCGAGA | 0.0852
139 | ATCCCTGG | -0.123
140 | CGGGACTC | -0.11
141 | CTTATTCA | -0.0168
142 | TAATAAGA | 0.168
143 | ATTAAAAT | 0.184
144 | CGGTAGTC | -0.192
145 | TCCCACAA | -0.149
146 | GCAATGAC | -0.125
147 | CCATTAAG | -0.0189
148 | AAAACATT | 0.183
149 | TGTGCGAA | 0.147
150 | AGCATCGA | -0.0592

Row | Sequence | PBM E-score
151 | AACATCTT | -0.0911
152 | AGGATAAT | 0.0412
153 | ATGCAAGA | 0.00645
154 | GAAGTCTA | -0.365
155 | ACCAGGCG | -0.143
156 | CACCCTCA | -0.315
157 | AAAAGCTA | -0.0536
158 | ATAAAGTA | 0.107
159 | CTGCTCCC | -0.208
160 | TCCTTAAA | 0.0727
161 | AGTACCCA | -0.186
162 | CTTTACTC | 0.125
163 | CGGGGCTA | -0.146
164 | AAGTCTTG | -0.00682
165 | GGGTTTTA | 0.0768
166 | ACGCCCGG | -0.15
167 | GGCCTCAA | -0.0681
168 | AGCCCCGG | -0.07
169 | CCCTCAGC | -0.239
170 | AAATCACG | 0.204
171 | CCCGCGGC | 0.411
172 | CAGCCTCC | -0.221
173 | ACTCGCAA | -0.0302
174 | ATGTTACG | 0.0345
175 | CATACATG | 0.00682

Row | Sequence | PBM E-score
176 | CTCCAAGC | -0.0932
177 | GGGCGCGA | 0.28
178 | AGAGGAAG | -0.188
179 | AATCTCGG | -0.0866
180 | TCCGCAGA | -0.0849
181 | ATCCGCGC | 0.212
182 | CACGAGCA | -0.155
183 | AAACCTGG | -0.06
184 | GATCAACA | -0.0194
185 | CGTGAGAC | 0.14
186 | GGGGGGTA | -0.342
187 | AACAATTG | -0.0991
188 | GACTTACC | -0.169
189 | CTCAGCGC | 0.0957
190 | ACTCAAAC | 0.0639
191 | AACGGCAT | 0.451
192 | ACAACAGT | -0.155
193 | CAGATGAC | -0.0813
194 | CTACTAGC | 0.063
195 | ACGACCCC | -0.132
196 | GGCCCCCA | -0.406
197 | AATGAATA | 0.111
198 | GTACCGCA | 0.18
199 | CGGACGAG | -0.159
200 | GCCTGTCC | -0.271

Row | Sequence | PBM E-score
201 | CCAACACG | 0.0774
202 | TGTCACAA | 0.158
203 | CTTACCAA | 0.171
204 | CTATACCC | -0.0678
205 | ACTAACCT | -0.0441
206 | ACGGAAAG | 0.0844
207 | GACGCTAC | -0.0952
208 | GATGCTGA | -0.277
209 | CAGCTGAA | -0.0542
210 | CCGAGTAG | 0.0203
211 | ATCCCGGG | -0.0412
212 | GGCCGCGA | -0.0392
213 | AGGAATTG | 0.019
214 | ATGAAGCC | 0.198
215 | ACTGAGTC | -0.097
216 | GTGATATA | -0.0801
217 | CACCTAGC | -0.224
218 | ATCTCCGA | -0.0118
219 | TCTTCACA | 0.107
